Data: publication PMC4336329 (PLoS ONE, 2015)
Screen size: about 310,000 compounds; about 14,000 (4.5%) showed an effect of 50% or more. The effect is printed as a negative number. The list shows a part of the results. Where a SMILES comes first, the peptide text is derived from it. [ ]: non-standard residue; d: D form. The star is where a group is joined. ξ: configuration not given here. Cbz = O=C(OCc1ccccc1)*; ξV = CC(C)C(N)C(=O)O

The compounds below were run against human ether-à-go-go-related gene (hERG) potassium channel (human, UniProt Q12809) (assay: primary screen, population patch clamp on CHO cells stably expressing hERG).
Sequence of human ether-à-go-go-related gene (hERG) potassium channel (Q12809 whole entry, looked up): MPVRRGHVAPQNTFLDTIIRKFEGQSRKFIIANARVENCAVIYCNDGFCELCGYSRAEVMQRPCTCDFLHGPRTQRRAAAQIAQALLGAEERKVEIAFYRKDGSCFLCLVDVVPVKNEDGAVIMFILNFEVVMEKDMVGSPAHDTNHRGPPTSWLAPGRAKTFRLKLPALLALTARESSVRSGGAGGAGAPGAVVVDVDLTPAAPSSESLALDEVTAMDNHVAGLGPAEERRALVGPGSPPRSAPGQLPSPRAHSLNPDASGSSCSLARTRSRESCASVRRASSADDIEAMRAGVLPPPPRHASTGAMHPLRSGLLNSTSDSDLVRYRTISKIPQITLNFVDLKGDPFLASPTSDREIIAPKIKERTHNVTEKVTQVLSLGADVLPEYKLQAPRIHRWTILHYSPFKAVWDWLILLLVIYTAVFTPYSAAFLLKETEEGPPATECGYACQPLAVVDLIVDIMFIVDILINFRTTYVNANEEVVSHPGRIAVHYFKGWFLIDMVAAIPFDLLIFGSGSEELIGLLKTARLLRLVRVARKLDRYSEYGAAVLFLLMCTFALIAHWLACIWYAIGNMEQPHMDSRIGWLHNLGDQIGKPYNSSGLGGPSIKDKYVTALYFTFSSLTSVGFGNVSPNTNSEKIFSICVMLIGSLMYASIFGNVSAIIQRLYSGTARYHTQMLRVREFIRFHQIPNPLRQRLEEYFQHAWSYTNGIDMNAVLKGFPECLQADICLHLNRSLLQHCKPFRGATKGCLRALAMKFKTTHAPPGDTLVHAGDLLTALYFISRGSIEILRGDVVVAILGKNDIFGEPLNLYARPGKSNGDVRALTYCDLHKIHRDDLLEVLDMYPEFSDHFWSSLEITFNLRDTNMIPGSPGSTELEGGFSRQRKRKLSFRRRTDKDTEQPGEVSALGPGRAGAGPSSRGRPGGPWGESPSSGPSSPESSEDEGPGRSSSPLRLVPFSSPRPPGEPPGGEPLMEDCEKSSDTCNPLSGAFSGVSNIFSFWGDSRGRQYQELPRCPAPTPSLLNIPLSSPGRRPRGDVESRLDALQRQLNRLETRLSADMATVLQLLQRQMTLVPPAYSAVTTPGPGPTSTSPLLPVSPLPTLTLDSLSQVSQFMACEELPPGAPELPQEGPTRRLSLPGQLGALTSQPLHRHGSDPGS
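Also: peak tail current of the secondary pulse compared with the same well before compound.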

Compound | hERG current change (%, negative = inhibition) at 10uM [%]
COc1ccc(C2N=C(c3ccccc3)NO2)cc1OC (stereo not drawn) | 9.76
CCC(=O)N1CCc2cc(S(=O)(=O)CCC(=O)N(C)c3ccc(OC)cc3)ccc21 | -7.43
COC(=O)c1ccc(CSc2ccc(S(=O)(=O)N3CCCCC3)cn2)cc1 | 18.3
CCC1=NN(C(=O)C(=O)Nc2ccc(Br)cc2)C(O)(C(F)(F)F)C1 (stereo not drawn) | 2.65
CCOC(=O)CC1COCCN1Cc1cn(C)nc1-c1ccccc1F (stereo not drawn) | 0.506
CCOC(=O)c1c(C#N)cnn1-c1ccc(C)cc1 | 9.18
CCCCN(C)CCCNC(=O)c1cn(CC)c2ccc(S(=O)(=O)N3CCOCC3)cc2c1=O | 10.3
C=CCn1c(SCC(=O)Nc2nccs2)nnc1-c1ccco1 | -48.9
NC(=O)c1ccc(-n2c(CCC(=O)O)ccc2-c2cccs2)cc1 | 20.2
COc1ccc(/C=C2\Sc3ccc(C(=O)NCCN4CCCCCC4)cc3N(C)C2=O)cc1 | -42.6
CCc1ccc(C(=O)NC(C(=O)O)C(C)C)cc1 (stereo not drawn) | -4.59
CCOc1ccccc1Nc1ncnc2c1cnn2-c1ccccc1 | -1.7
O=C(CCN1C(=O)c2ccccc2C1=O)Nc1ccccc1C(F)(F)F | -3
O=C(Nc1ccc(F)cc1F)C1CCCN1S(=O)(=O)c1ccc(-c2ccc(=O)[nH]n2)s1 (stereo not drawn) | -33.5
COc1ccc(-n2nc(C(=O)NCc3ccco3)c3c4ccccc4n(C)c3c2=O)cc1Cl | 9.8
CCC(c1nnnn1C(C)C)N1CCN(C2CCCC2)CC1.Cl (stereo not drawn) | -7.11
CCN1C(=O)/C(=C\c2ccncc2)SC1=Nc1ccc(C)c(C)c1 | 9.65
O=S(=O)(Oc1ccc(C(=S)N2CCOCC2)cc1)c1ccc(Cl)cc1 | -0.0264
COc1ccc(N2CCN(C3CCCN(Cc4ccc(F)c(F)c4)C3)CC2)cc1 (stereo not drawn) | -64.6
COc1ccc(C(=O)NCC(=O)OCC(=O)c2cc(OC)c(OC)c(OC)c2)cc1OC | 28.5
COc1ccc(C2SCC(=O)N2c2nnc(C34CC5CC(CC(C5)C3)C4)s2)cc1 (stereo not drawn) | 1.93
CCOC(=O)CSC1=C(C#N)C(c2ccc3c(c2)OCO3)CC(=O)N1 (stereo not drawn) | 4.44

Compound | hERG current change (%, negative = inhibition) at 10uM [%]
COc1cccc(CSc2nccn2C)c1 | 16.8
NC(=O)c1ccc(NC(=O)COC(=O)c2ccccc2Nc2ccccc2)cc1 | 3.18
CCCN1Cc2cccc(C(=O)Nc3ccc(C)cc3)c2C1=O | 22.6
CN(C)c1ccc(/C=C(\C#N)C(=O)Nc2nc3c(s2)CCN(Cc2ccccc2)C3)cc1 | 12.1
Cn1c(Cn2c3ccccc3c3ccccc32)n[nH]c1=S | 2.11
NC(=O)c1ccc(-c2nnn(CC(=O)Nc3cccc(S(=O)(=O)N4CCCC4)c3)n2)cc1 | 4.54
Cc1cc(C)n(-c2ccc(C(=O)NCCCN3CCOCC3)cc2)n1 | 19.7
O=C(COC(=O)c1ccccc1O)NCC1COc2ccccc2O1 (stereo not drawn) | 21.3
CCOc1ccc(C(=O)COC(=O)Cc2n[nH]c(=O)c3ccccc23)cc1 | -14.4
O=C(NCCN1CCOCC1)c1ccc(Cl)cc1[N+](=O)[O-] | 7.54
Cc1nc(N2CCN(C(=O)COc3ccccc3)CC2)c2c(C)c(C)sc2n1.Cl | -69.3
O=C(CN1C(=O)COc2ccccc21)N1CCCC1 | 11.4
CC(C)OC(=O)c1c2c(n3ccccc13)C(=O)c1ccccc1C2=O | 5.73
CCCC(=O)c1ccc2c(c1)OCCO2 | 12.2
Cc1ccc(C2/C(=C(/O)c3ccc(Cl)cc3)C(=O)C(=O)N2CC2CCCO2)o1 (stereo not drawn) | -0.97
COc1ccc(CC(=O)NCc2nnc(SCC(=O)Nc3ncc(C)s3)n2C)cc1 | 9.69
CC1CCCN(C(=O)Cn2nnc(-c3ccccc3F)n2)C1 (stereo not drawn) | 13.8
COc1cc(S(=O)(=O)N2CCOCC2)cc(C(=O)c2nccn2C)c1OC | 14.8
Cc1ccc(C)c(NC(=O)CN(C)C(=O)CSCc2c(C)noc2C)c1 | -7.38
COc1ccc(C(=O)Nc2c(N)nc(SCC(=O)N3CCC(C)CC3)[nH]c2=O)cc1OC | 6.86
COc1cccc(N2CCN(C(=O)CN(C)S(=O)(=O)c3ccc4c(c3)c(=O)n(C)c(=O)n4C)CC2)c1 | -10.8
Cc1cccc(N2Cc3ccc(Br)cc3C2)c1 | -2.05

Compound | hERG current change (%, negative = inhibition) at 10uM [%]
COc1ccccc1-c1cc(C(=O)N2CCc3ccccc3C2)c2ccccc2n1 | 0.422
NC(=O)C1CCN(C(=O)c2cc3ccccn3n2)CC1 | 2.6
O=C(NCCCCCCNC(=O)c1ccncc1)c1ccncc1 | 6.29
COC(=O)c1cc(-c2ccc(Cl)cc2)n(-c2ccc(S(N)(=O)=O)cc2)n1 | -30.6
Cc1sc(N/N=C/c2cc([N+](=O)[O-])ccc2O)nc1-c1ccccc1 | 13.9
CCC(Oc1ccccc1F)C(=O)NCCN1CCOCC1 (stereo not drawn) | 2.26
COc1ccc(-c2ccc(OC)c([C@H]3[C@H]4C=CC[C@@H](C)[C@@H]4C(=O)N3Cc3ccccc3)c2)cc1 | 8.91
COc1cc(/C=C/c2nc(-c3ccccc3O)n[nH]2)cc(OC)c1OC | -5.02
O=C(CSc1n[nH]c(-c2ccco2)n1)Nc1ccccc1Cl | 8.27
O=c1cnnc(Nc2cccc(C(F)(F)F)c2)[nH]1 | 12
CCOC(=O)c1ccc(CNCc2ccc(Br)cc2)cc1 | -39.7
O=C(OCc1ccc(Cl)c(Cl)c1)c1cnccn1 | 9.11
CCOC(=O)N1CCN(C(=O)C2CCCN(c3nc4ccc(OCC)cc4s3)C2)CC1 (stereo not drawn) | -37.3
CC1CCc2c(sc3nc(CN4CCN(S(=O)(=O)c5ccccc5[N+](=O)[O-])CC4)[nH]c(=O)c23)C1 (stereo not drawn) | -8.04
Cc1c(C(=O)O)cnc2c([N+](=O)[O-])cnn12 | 28.9
CC(=O)n1nc(-c2ccccc2)nc1NCc1ccc(F)cc1 | 17.1
Cc1ccc(-n2c(-c3cn(C)nc3C)n[nH]c2=S)cc1 | 19.7
Cc1cc(C(=O)OC(C)C(=O)NC2CCCCC2)c(C)o1 (stereo not drawn) | 4.91
CC(=O)Nc1ccccc1OCC(O)CS(=O)(=O)c1ccc(C(F)(F)F)cn1 (stereo not drawn) | 1.17
O=C(c1ccc(Br)cc1)N1CCN(Cc2ccccc2)CC1 | -52.2
CCN(CC)CCNC(=O)c1cn(CC)c2cc(N3CCN(C(=O)c4ccco4)CC3)c(F)cc2c1=O.Cl | 0.131
CC(O)CNCCOc1ccccc1OCc1ccccc1.O=C(O)C(=O)O (stereo not drawn) | -7.17

Compound | hERG current change (%, negative = inhibition) at 10uM [%]
O=C(COC(=O)C1CC(=O)N(Cc2ccccc2)C1)Nc1ccccc1F (stereo not drawn) | 7.39
COc1ccc(NC(=O)C2CCCN2c2ccc(OC)c(OC)c2)cc1OC (stereo not drawn) | -2.81
C=CCNCCOCCOc1ccc(Cl)cc1C(C)(C)C.O=C(O)C(=O)O | 11.2
CC1CN(c2ccc([N+](=O)[O-])cc2Cl)CCN1S(C)(=O)=O (stereo not drawn) | -47.2
CCN1C(=O)c2cccc3c(NS(=O)(=O)c4ccc(NC(C)=O)cc4)ccc1c23 | -8.89
COc1ccccc1CN1C(=NC(=O)CCC2CCCC2)SC2CS(=O)(=O)CC21 (stereo not drawn) | 17.2
CCOC(=O)c1[nH]c2c(c1-c1ccccc1)C(=O)CC(c1ccccc1)C2 (stereo not drawn) | -9.17
Cc1ccc(N(CC(O)CN2CCCCC2)S(=O)(=O)c2ccccc2[N+](=O)[O-])cc1 (stereo not drawn) | -70.9
COC(=O)CNC(=O)C(NC(=O)OCc1ccccc1)C(C)C (stereo not drawn) (Cbz-[ξV]-Gly-OMe) | 16.1
Cc1oc(CC(C)C)cc1C(N)=O | 13.3
Cc1cccc2nc(-c3ccco3)c(Nc3ccccc3)n12 | 11.4
COc1ccccc1NC(=O)Cn1c(=O)n(-c2ccccc2)c(=O)c2oc3ccccc3c21 | 9.59
CC(NC(=O)COc1cccnc1[N+](=O)[O-])c1ccc(Cl)cc1Cl (stereo not drawn) | -16.4
CCc1ccc(/C=N/NC(=O)c2cc(C3CC3)nc3ccccc23)s1 | -4.16
CCOc1ncccc1C(=O)OCC(=O)Nc1c(C)cccc1C | 4.92
N#Cc1ccccc1Cn1cc(C#N)c2ccccc21 | -22.8
CCOc1cc(/C=C(/C#N)C(=O)Nc2ccc(OC)cc2)ccc1OCc1ccc(C(=O)O)cc1 | 13.1
CCOC(=O)N1CC=C2C(C#N)=C(N)C(C#N)(C#N)[C@H](c3ccc(OCC)c(OCC)c3)[C@H]2C1 | 2.57
O=C(NNC(=O)c1sccc1-n1cccc1)c1ccccc1 | 0.14
Cl.O=C(OCCN1CCCCC1)C1(c2ccccc2)CCCC1 | 4.72
O=C1C(Cl)=C(N2CCN(Cc3ccccc3)CC2)C(=O)N1Cc1ccccc1 | -1.82
